# Measurements: PubChem BioAssay AID1454 (National Center for Advancing Translational Sciences (NCATS), 2008)
# The campaign covered roughly 130,000 compounds. About 550 (0.42%) were called active. The shares of active, inactive and inconclusive entries below differ from those in the screen. Calls follow the shape of the dose curve; as a rule, active = well fitted inhibition curve with a large enough effect; inconclusive = small, poorly fitted or top-dose-only effect, or effect the other way; inactive = flat fitted curve, though single readings scatter. Potencies of inconclusive entries are left out as doubtful fits.
# Test: qHTS Assay for Inhibitors of the ERK Signaling Pathway using a Homogeneous Screening Assay; Stimulation with EGF; also: nearly all actives have a fitted effect of over 55% in size
# Conditions: HEK293-V1b, EGF-stimulated phospho-ERK AlphaScreen
# How it was run: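 Concentration-response of compounds against EGF-driven ERK phosphorylation in V1b-expressing HEK293 cells; 30 min preincubation, 5 min EGF, AlphaScreen detection; Normalized to DMSO basal and 25 nM EGF.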
# Potency is read from the fitted curve at half-maximal effect; tags tell the direction and shape of the fitted curve.
row,Structure (SMILES),Potency
1,CC(C)[C@@H]1NC(=O)c2cc([N+](=O)[O-])cc(I)c2NCCC[C@@H](C(N)=O)NC(=O)[C@H](CO)NC1=O,"inconclusive [inhibitor, partial curve]"
2,O=C(c1cccc(F)c1)N1CCC2(CCN(Cc3ccncc3)CC2)CC1,inactive
3,S=C(NCCN1CCOCC1)Nc1cccc2ccccc12,inactive
4,O=C(C1=C(O)/C(=C/c2ccc(O)cc2)CCC1)C(F)(F)F,"inconclusive [inhibitor, single point]"
5,COc1ccc(N2CCN(CCCNC(=O)C3CCC(CNc4nc(=S)[nH]c5ccccc45)CC3)CC2)cc1 (centres undefined),"inconclusive [inhibitor, single point]"
6,COC(=O)c1nnc(N[C@@H](Cc2c[nH]c3ccccc23)C(=O)OC)nc1C(=O)OC,inactive
7,CC1CCN(c2ccc(C(=O)NCc3ccc4c(c3)OCO4)cc2[N+](=O)[O-])CC1,"inconclusive [inhibitor, partial curve]"
8,COc1ccc2cc1Oc1ccc(cc1)CC1c3c(cc4c(c3Oc3cc5c(cc3OC)CCN(C)C5C2)OCO4)CCN1C (centres undefined),"inconclusive [inhibitor, single point]"
9,Cn1c(N2CCOCC2)c(/C=N/O)c2ccccc21,inactive
10,O=C(c1csnn1)N1CCC2(CC1)CCN(c1ccccn1)CC2,inactive
11,Cc1cc(C)c(O)c(-c2n[nH]c3c2C(c2cccc(O)c2)N(Cc2ccco2)C3=O)c1 (centres undefined),"inconclusive [inhibitor, single point]"
12,O=C1CC(c2ccco2)Cc2c1cnn2-c1nc2ccccc2s1 (centres undefined),inactive
13,CN(C)c1ccc(CNC(=O)[C@@]2(C)C=C[C@@H](Cc3ccccc3)N2C)cc1,inactive
14,Cc1nc2ccccc2nc1SCC(=O)c1ccccc1,"inconclusive [inhibitor, single point]"
15,Cn1cccc1C(=O)N1CCC2(CCCN(C(=O)Nc3ccccc3)C2)CC1,inactive
16,COc1cc2ncnc(NCc3ccc(C)o3)c2cc1OC,active: 28.2 µM
17,NC(=O)C1CCN(C2=C(NS(=O)(=O)c3ccccc3)C(=O)c3ccccc3C2=O)CC1,"inconclusive [inhibitor, single point]"
18,O=C(COC(=O)c1ccc(Cl)c(S(=O)(=O)N2CCc3ccccc3C2)c1)Nc1ncc(Cl)cc1Cl,inactive
19,CCCCCCCCCCCC1=C(O)C(=O)C=C(O)C1=O,"inconclusive [inhibitor, full curve, poor fit]"
20,O=[N+]([O-])c1ccc(SCc2ccco2)cc1N1CCOCC1,"inconclusive [inhibitor, single point]"
21,COc1ccc(CNc2ncnc3c2[nH]c2ccccc23)cc1,"inconclusive [inhibitor, single point]"
22,COc1cc2c(cc1OC)C1(C)N(CC2)C(C(C)=O)=NN1c1ccc(Cl)cc1 (centres undefined),"inconclusive [activator, single point]"
23,CC1=NC(=O)C(N=Nc2ccccc2)N1c1ccccc1 (centres undefined),"inconclusive [inhibitor, partial curve]"

row,Structure (SMILES),Potency
1,COc1cc(/C=N/NC(=S)NC2CC3CC2C2C=CCC32)ccc1O (centres undefined),"inconclusive [inhibitor, single point]"
2,O=c1[nH]c(=O)n(Cc2ccccc2)c2nc(-c3ccc(Oc4ccc(F)cc4)c([N+](=O)[O-])c3)n(CCO)c12,inactive
3,O=C(Nc1cccc(F)c1)N1CC2(CCN(C(=O)c3cc(C(F)(F)F)cc(C(F)(F)F)c3)CC2)C1,inactive
4,CNc1ncncc1-c1ccccc1OC,inactive
5,O=C(COC(=O)c1cccc(S(=O)(=O)N2CCN(c3ccccc3)CC2)c1)NCC1CCCO1 (centres undefined),"inconclusive [inhibitor, full curve, poor fit]"
6,CCN(CC)S(=O)(=O)c1cccc(C(=O)/C=C2/N(C)c3ccccc3C2(C)C)c1,"inconclusive [activator, single point]"
7,COc1cc(/C=C2\COC/C(=C\c3ccc(O)c(OC)c3)C2=O)ccc1O,"inconclusive [inhibitor, single point]"
8,O=[N+]([O-])c1cccc2c(N3CCOCC3)ccnc12,inactive
9,Cc1ccc(-n2cc(CN3CCCN(C=O)CC3)c(-c3ccc(F)cc3)n2)cc1,"inconclusive [inhibitor, partial curve]"
10,COc1ccc(-c2csc(NC(=O)c3ccc(N4C(=O)CCC4=O)cc3)n2)cc1OC,"inconclusive [inhibitor, partial curve]"
11,O=C(CCc1nc2ccccc2[nH]1)N1CCc2ccccc2C1,"inconclusive [inhibitor, partial curve]"
12,N#C/C(=C/c1ccc(Br)s1)C(=O)NCCc1c[nH]c2ccccc12,"inconclusive [inhibitor, partial curve]"
13,Cc1cccc(CNc2ncnc3ccc(-c4ccccc4C#N)cc23)c1,inactive
14,COc1cccc(Cn2c(=O)c(C)nc3cnc(N4CCOCC4)nc32)c1,inactive
15,CCOC(=O)c1cccc(NC(=S)NCc2ccc(C)cc2)c1,"inconclusive [inhibitor, partial curve, poor fit]"
16,O=C(Nc1nc(-c2cccs2)c(-c2cccs2)s1)C1(c2ccccc2)CC1,"inconclusive [activator, single point]"
17,COc1cccc2[nH]c3c(N4CCC5(CC4)OCCO5)ncnc3c12,inactive
18,O=C(Nc1cccnc1)c1ccc(S(=O)(=O)c2ccc(Cl)cc2)cc1,"inconclusive [inhibitor, single point]"
19,CCc1oc2ccccc2c1C(=O)c1cc(Br)c(O)c(Br)c1,"inconclusive [inhibitor, single point]"
20,COc1cc(C(=O)NCc2nnc(SCC(=O)Nc3ccc4c(c3)OCO4)o2)cc(OC)c1OC,"inconclusive [inhibitor, single point]"
21,COc1ccc(C(C)=O)cc1CSc1nnc(Nc2ccccc2)s1,"inconclusive [inhibitor, single point]"
22,CCN(CC)S(=O)(=O)c1ccc(N2CCCC2)c(NC(=O)C2CCCCC2)c1,"inconclusive [inhibitor, full curve]"
23,COc1ccc(C=C2c3ccccc3C(=O)c3ccccc32)c(OC)c1,"inconclusive [inhibitor, partial curve]"

row,Structure (SMILES),Potency
1,OCCCNc1nccc(-c2cc(Nc3cccc(Cl)c3)ncn2)n1,active: 22.4 µM
2,COc1ccc(CSc2nc3ccccc3c(=O)[nH]2)cc1F,"inconclusive [inhibitor, partial curve]"
3,COc1ccc(Nc2c3c(nc4c(-c5ccccc5)c(C)nn24)CCC3)cc1,"inconclusive [activator, partial curve]"
4,CC1(C)CC2CC(C)(CN2c2ncnc3ccc(Br)cc23)C1 (centres undefined),"inconclusive [inhibitor, partial curve]"
5,COC(=O)c1ccccc1NS(=O)(=O)c1ccc(Cl)nc1,"inconclusive [inhibitor, partial curve]"
6,CNc1c(C(=O)O)ccc2c1C(=O)c1ccccc1C2=O,"inconclusive [inhibitor, single point]"
7,Cc1onc(-c2ccccc2Cl)c1C(=O)NC(=S)NCC(=O)c1ccccc1,inactive
8,Cc1ccc(C(=O)Nc2nnc(-c3ccco3)o2)cc1,inactive
9,Cc1onc(-c2ccccc2)c1C(=O)OCC(=O)Nc1cc(S(=O)(=O)N2CCOCC2)ccc1Cl,inactive
10,COc1ccc(Oc2ncc3nc(-c4cccs4)c(=O)n(Cc4cccs4)c3n2)cc1,"inconclusive [activator, partial curve, poor fit]"
11,COc1ccc(NC(=O)N2CCCC3(CCN(C(=O)c4cnccn4)CC3)C2)cc1,inactive
12,O=C(NCc1ccc(Cl)cc1)C1CCN(S(=O)(=O)c2ccc(F)cc2)CC1,inactive
13,COc1ccc(-n2ncc3c(N4CCN(Cc5ccccc5)CC4)ncnc32)cc1,active: 31.6 µM
14,Cc1c(Br)c([N+](=O)[O-])nn1CC(=O)N1CCN(Cc2ccccc2)CC1,"inconclusive [inhibitor, single point]"
15,O=C(O)c1cccc(-c2ccc(/C=N/n3cnc4sc5c(c4c3=O)CCCC5)o2)c1,inactive
16,CC[C@@]1(O)CC2CN(CCc3c([nH]c4ccccc34)[C@](C(=O)OC)(c3cc4c(cc3OC)N(C)C3[C@@](O)(C(=O)OC)C(OC(C)=O)[C@]5(CC)C=CCN6CC[C@@]43C65)C2)C1 (some centres undefined),inactive
17,Clc1ccc(-n2ncc3c(NCc4ccco4)ncnc32)cc1,"inconclusive [inhibitor, single point]"
18,Cc1cccc(NC(=O)c2cc([N+](=O)[O-])ccc2N2CCCCC2)n1,"inconclusive [inhibitor, single point]"
19,c1ccc(Nc2ncnc3ccc(-c4ccc5c(c4)OCO5)cc23)cc1,active: 2.82 µM
20,C[C@@H](C(=O)Nc1ccc2ccccc2c1)[C@@H]1C[C@@]1(C)[C@@H](NC(=O)c1ccncc1Cl)c1ccccc1,inactive
21,CC1(C(=O)NCCc2c[nH]c3ccccc23)C=CCN1C(=O)c1ccccc1 (centres undefined),"inconclusive [inhibitor, partial curve]"
22,COc1ccccc1-c1cc(C(F)(F)F)nc(N2CCN(c3ccc(F)cc3)CC2)n1,"inconclusive [activator, single point]"
23,Cc1ccc(CN2CCN(/N=C\c3cccc([N+](=O)[O-])c3)CC2)cc1,"inconclusive [inhibitor, single point]"
